These results are taken from ChEMBL document CHEMBL1201862, “PubChem BioAssay data set” (2004).

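Assay format: 96-well plates, 48-hour exposure. Abbreviation: GI50, concentration required for 50% inhibition of growth.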 Calls of active or inactive are those of the source. No stated cut-off is given here; in the data, active = GI50 up to about 1.1 µM and inactive = higher.

The subject of this assay is NCI-H322M. The assay can be described thus: NCI tumour cell line growth inhibition, 48 h.
In the case of `Cc1occc1C(=S)Nc1ccc(Cl)c(C(=O)OC(C(C)C)C(C)C)c1`, the GI50 was inactive: 17.1 µM.
Next, `COc1c(-c2cccs2)oc2c(CC(=O)O)cccc2c1=O`: inactive: > 100 µM.
For `O=C(CSc1ncnc2[nH]cnc12)c1ccccc1`, the GI50 was inactive: > 100 µM.
Next, `N#CC12COC3(CCCCC3C1(C#N)C#N)OC2=N` (centres undefined): inactive: 25.4 µM; `Cc1cc2c(C(C)C)c(O)c(O)c(C=O)c2c(O)c1-c1c(C)cc2c(C(C)C)c(O)c(O)c(C=O)c2c1O`: inactive: 2.79 µM.
Consider `O=C1Nc2ccccc2/C1=N/NC(=S)Nc1ccc(Cl)cc1`, for which the GI50 is inactive: 14 µM.
With `[O-][N+]1=C(c2ccccc2)COc2ccccc21`, the GI50 is inactive: > 100 µM.
For `C/C=C/C1(C)/C(=N\O)C(C)(CCC)C(=O)N1O` (centres undefined), the GI50 was inactive: > 100 µM.
Regarding `Clc1ccc(-c2c3nc(c(-c4ccc(Cl)cc4)c4ccc([nH]4)c(-c4ccc(Cl)cc4)c4nc(c(-c5ccc(Cl)cc5)c5ccc2[nH]5)C=C4)C=C3)cc1`, the GI50 was inactive: > 100 µM.
Then `O[C@]12C=C(c3nccc4c3[nH]c3ccccc34)[C@@H]3CCN(CCCC/C=C\CC1)C[C@@]31CC3/C=C\CCCCN3[C@H]12` (some centres undefined), with active: 0.667 µM.
Next, `COc1cc(C)c(C(=O)/C=C/c2cc(OC)c(O)c(OC)c2)cc1O`: inactive: 21.2 µM; `N#CSCc1nc2ccc(Cl)cc2c(-c2ccccc2)[n+]1[O-]`: inactive: > 100 µM; `CCc1ccc(Cc2ccc(CC)c(NC(=O)C(=O)C3NC(=S)NC3=O)c2CC)c(CC)c1NC(=O)C(=O)C1NC(=S)NC1=O` (centres undefined): inactive: > 100 µM.
Then `O[C@@H]1CCC[C@@H]2NC[C@@H](c3ccc4c(c3)OCO4)[C@H]12`, with inactive: > 100 µM; and `S=C1c2ccc(Cl)cc2-n2cnnc2C2CSCN12` (centres undefined), with inactive: > 100 µM.
For the molecule `COc1ccc(-c2c(C(=O)Nc3ccccc3)c(-c3ccccc3)n(C3OC(CO)C(O)C(O)C3O)c(=S)c2C#N)cc1` (centres undefined), the GI50 is inactive: > 100 µM.
Then `CCC(=O)c1ccc2[nH]c3c(C)c4c(O)cc(C)nc4c(C)c3c2c1`, with inactive: > 100 µM; and `CC(C)OP(=O)(OC(C)C)/C(=N/Nc1ccc([N+](=O)[O-])cc1)NN`, with inactive: > 100 µM; and `COC(=O)C1CC23C=CCN4CC(C2C)C2(c5ccccc5NC12)C43` (centres undefined), with inactive: > 100 µM.
Next, `[O-][S+](Nc1ccccc1)c1ccc(Cl)cc1` (centres undefined): inactive: 75.2 µM.
In the case of `COc1nc2ccc(COc3ccc(C(=O)NC(CCC(=O)O)C(=O)O)cc3)cc2nc1OC` (centres undefined), the GI50 is inactive: > 10 µM.
Next, `N[C@H]1CCc2c1nc1c(c2-c2ccccc2)CC[C@@H]1N`: inactive: > 100 µM; `C#CCn1c(I)cc2c(c1=O)COC(=O)[C@]2(O)CC`: inactive: > 100 µM; `O=C1OC(C2=CC(=O)c3ccccc3C2=O)C(Cl)=C1Cl` (centres undefined): inactive: > 100 µM.
For `NC(=O)C(c1ccccc1)N1OC2C(=O)N(c3cccc4ccccc34)C(=O)C2C1c1c2ccccc2c(Cl)c2ccccc12` (centres undefined), the GI50 is inactive: 14 µM.
As for `O=C1c2ccccc2CC12Cc1ccccc1C2`, the GI50 was inactive: > 100 µM.
In the case of `CC(C)(C)N1NC1C1NN1C(C)(C)C` (centres undefined), the GI50 is inactive: > 100 µM.
Next, `O=C(Nc1c(O)[nH]c(=S)[nH]c1=O)c1ccco1`: inactive: > 100 µM.
Next, `COc1cc2cc(C(=O)N3C[C@H](CCl)c4c3cc(O)c3ccccc43)[nH]c2c(OC)c1OC`: active: 0.192 µM; `Cc1cc(N(CCC#N)CCC#N)ccc1C(/N=N/c1ccc(Cl)cc1)=N\NC(=O)c1ccccc1`: inactive: 36.5 µM; `C=C1CC(C)(c2cccc(Nc3nc4ccccc4c4occc34)c2)OC1=O` (centres undefined): inactive: 31.7 µM.
Then `COC(=O)c1cc(C)n(CN(Cn2nc(C(=O)OC)cc2C)c2ccccc2)n1`, with inactive: > 100 µM.
In the case of `Cc1ccc(S(=O)(=O)N2CCSCCSCCN(S(=O)(=O)c3ccc(C)cc3)CCN(S(=O)(=O)c3ccc(C)cc3)CC2)cc1`, the GI50 is inactive: > 100 µM.
Turning to `CC(NC(=O)C(N)CC(=O)O)NC(=O)C1CCC1` (centres undefined), the GI50 was inactive: > 100 µM.
On to `OC12c3ccccc3C1CCCCCCCCCC21OCCCO1` (centres undefined), for which the GI50 is inactive: > 100 µM.
Then `S=c1[nH]c2ccc(Br)cc2c(=S)s1`, with inactive: 27.2 µM; and `CC1=C(/C=C/C(C)=C/C=C/C(C)=C/C(=O)OCC2OC(n3cc(F)c(=O)[nH]c3=O)CC2OC(=O)/C=C(C)/C=C/C=C(C)/C=C/C2=C(C)CCCC2(C)C)C(C)(C)CCC1` (centres undefined), with active: 1.01 µM.
As to `O=C1Oc2ccccc2C(=O)/C1=C/NC(=S)NCCc1ccccc1`, the GI50 was inactive: 36.8 µM.
With `COC(=O)C(C(=O)C(=O)Nc1nc2ccc([N+](=O)[O-])cc2s1)c1nc2ccc(Cl)cc2nc1O` (centres undefined), the GI50 was inactive: > 100 µM.
`CCCCC(=O)c1c(O)ccc2c(C)cc(=O)oc12`: the GI50 was inactive: > 100 µM.
For the molecule `CC(=O)C(O)N1C(=O)C=CC1=O` (centres undefined), the GI50 was inactive: 22 µM.
As to `CCOc1cccc2c1N[S@@](=O)S2`, the GI50 was inactive: > 100 µM.
Consider `CCOC(=O)C1(C)CCC(C(C(=O)O)C(=O)O)CC1=O` (centres undefined), for which the GI50 is inactive: > 100 µM.
Next, `COc1ccc(NC(C)c2ccncc2)cc1` (centres undefined): inactive: 1.63 µM.
Then `NC1CCCCC1.O=P(O)(O)C(CSc1ccccc1)P(=O)(O)O`, with inactive: > 100 µM; and `C=CC(c1ccccc1)[C@@]1(OC(C)=O)C(=O)C(=O)OC1C1COC(C)(C)O1` (some centres undefined), with inactive: 16.4 µM.
Regarding `c1ccc(/N=C2\c3ccccc3CN2c2ccccn2)nc1`, the GI50 is inactive: > 100 µM.
Take `O=C(Sc1sc(=S)sc1SC(=O)c1ccccc1)c1ccccc1`: the GI50 is inactive: 19.9 µM.
For `CNn1c(C)n[nH]c1=O`, the GI50 was inactive: > 100 µM.
Then `Cc1ccc(NC(=O)C(Cc2c[nH]c3ccccc23)NC(=O)Oc2ccccc2)cc1C` (centres undefined), with inactive: 18.6 µM.
Then `O=C(Nc1ccc(Cl)cc1)c1cccc([N+](=O)[O-])c1O`, with inactive: 4.28 µM; and `CC(=O)N(/N=C\c1ccc([N+](=O)[O-])cc1)c1ccccc1`, with inactive: 48.6 µM.
Next, `Cn1c(SCc2ccc([N+](=O)[O-])cc2)nnc1C12CC3CC(CC(C3)C1)C2`: inactive: > 10 µM; `CCOC(=O)C1(C/C=C/CBr)CCc2ccccc2C1=O` (centres undefined): inactive: 19.1 µM; `Cc1cn(C2CC(OP(=O)(O)OCC3OC(n4c[n+]([BH2-]C#N)c5c(=O)[nH]c(N)nc54)CC3O)C(CO)O2)c(=O)[nH]c1=O` (centres undefined): inactive: > 100 µM.
Consider `OC1CCC[C@@H]1Sc1ccccc1` (some centres undefined), for which the GI50 was inactive: > 100 µM.
Take `Cn1cnc([N+](=O)[O-])c1Sc1ccccn1`: the GI50 was inactive: > 100 µM.
As for `CC1(C)N=C(N)N=C(N)N1c1cccc(OCc2cccc([N+](=O)[O-])c2)c1`, the GI50 is inactive: 48.3 µM.
Then `Oc1ccc(O)c(Cc2ccccc2)c1`, with inactive: 28 µM.
